This is one part of the list.
Each sequence was assayed on PfSIP2 AP2 domain 1 (GST-tagged) (assay: gcPBM binding intensity (ln(normalized median fluorescence intensity)); higher = stronger DNA binding).
Method in brief: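 Plasmodium falciparum DNA-binding domains carrying a GST tag were expressed in E. coli and applied for 1 h, at about 25 μg on average, to an Agilent 4 × 180k array. The array held primer-extended double-stranded 36-bp intergenic genomic probes together with negative controls, and binding took place in 1× PBS with 1% milk, 0.2 mg/ml BSA, 0.5% salmon testes DNA and 0.03% Triton X-100. An Alexa488 anti-GST antibody detected bound protein, and the array was scanned at 488 nm. Binding intensity is taken as the highest Masliner-normalised natural-log median intensity across replicate spots of either probe orientation.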

Sequence	gcPBM binding intensity (ln)
ATAAAATAAAAACATGCACACTTTATTTTTTTTAAG [CACACA_site5545]	9.31
AAAGAAGGGGGGGGAAAAAAAAATAAAAGAGGAAAA [XGTACX_negctrl_site92]	8.91
TGGGGTATTAAAAAAACACACAAAAAAAATATAAAG [CACACA_site1915]	7.1
AAAATGTATATTGGCGCATGTAAACAAATACTATAC [TGCATGCA_site385]	7.13
TCAAAATGTGACATAAAAGAAAAAAAAAAAAAAAAA [CACACA_negctrl_site1092]	6.94
GATAATAATAAGTGTACACATATATTTAGAAGAGTA [CACACA_site4245]	7.25
AATATAAAAAATAATACACACACATGGCGACAAAAT [CACACA_site8765]	7.28
ATGTAAGTAATTATCTGTACACATAATATATATATA [XGTACX_site2618]	8.94
CACATAAATAATTAAACACACATTGTTCTAGACAAT [CACACA_site2378]	6.81
TTTGAGTTACTATTCACACAAAATGGATAAATTAAT [CACACA_site5626]	7.07
TACATATTACTATTCAGTACATATTTTTTTTTCATT [XGTACX_site7468]	6.99
AGGATAAAAGTTATGGTGCATTAACCTATTTAAATA	10.2
TATATAGGTATATATACACACAACGGTTATAAATAT [CACACA_site4759]	7.06
TATAAAGACACGAAAACACACATATGTAAATATATA [CACACA_site8056]	7.27
TAGTTTTGAAAACAAACACACAAAAAAAAAAAAAAA [CACACA_site1692]	6.88
AATTTTATTACTTTTACACACCTATATATCATTCAT [CACACA_site7525]	7.05
ACCTTAAATAATACATGTACAAAAAAATTTATAATA [XGTACX_site1043]	7.67
AAGAATAAGGAAAAATGTACAGAATGCACATATGAA [XGTACX_site4705]	7.33
TAGGGATTATACCACACACACATACACATAAATATA [CACACA_site3178]	7.08
AAAAAAAATACAAAAAGTACAAAAAATACAAAAAAA [XGTACX_site8844]	6.79
TTCTTTTTTTAAAGAAGTACTATATTTTAAATTATA [XGTACX_site5059]	6.67
TTTAAAATAAATTAATAGAACAAAAATAAAATGATT [GTGCAC_negctrl_site375]	7.03
ATGTATATATATATATGTACATATTTTTTATATGTA [XGTACX_site441]	7.11

Sequence	gcPBM binding intensity (ln)
AATAATAAAAAAAGTGCACACACATAATATATATAT [CACACA_site9100]	10.6
TATAAAAAAATAAAAGGAATATACTTGCAAAGGGTA [CACACA_negctrl_site1438]	7.18
AACAATATATTGATATTATTTTAAGTGATTATATAT [XGTACX_negctrl_site205]	6.88
TTTCAAATGATTAAGTGTACATGTTTGCTTGCTCTT [XGTACX_site4697]	6.96
TTTTTTTTTGTTATGTTGCACTTTGCCATATTATTA [GTGCAC_site9844]	7.93
ATATTAAAATTTTAATGTACATGCGTATGTAGGAAT [XGTACX_site1673]	7.39
AACATATATTTTTAATGTACAAGGTTGTAAAGAACT [XGTACX_site1405]	7.17
TATATTATATTTTTATGTACTTATTTATTTTGTTTC [XGTACX_site6145]	6.97
ATTGTATTAAAATGCACACATATCAAGAGGAATTTT [CACACA_site283]	7.19
ATGTATATATTCAATTGTACATGTTATATTTACACA [XGTACX_site1125]	6.94
AAAGAATAATTAAATACACACATATTGCAGTAAAAA [CACACA_site7201]	6.99
TGTAAAATATAAAAAGTGCATTTCTTTTAATATGAT	8.94
CAATTGATATTGAAATGTACTTTTTAGATGAACCTT [XGTACX_site2354]	6.7
TTAAATAATGCCACCAGTACCCACTGAAAGAAAAAA [XGTACX_site5013]	7.09
TATATTAAAATTTACTGTACTTTTTTTATTTTAAAA [XGTACX_site4077]	7.2
AAAGATATAAATTACTGTACTAATGAAATTGGTAAA [XGTACX_site3582]	6.61
AATCCTTAAAATTAACGTACGAAATGAATTTATTAA [XGTACX_site956]	6.86
TGGAGGTCATTACACAGTACCCAGGAAATCTACGGA [XGTACX_site2004]	6.64
AAACCGTGGGAGCACACACACACACCCACCCATATA [CACACA_site332]	6.91
ACAAAACAAAACAAAAGTACACAAAATAAATAAGAT [XGTACX_site6497]	7.32
ATAATAACAAAATATTAACACACATAACATATTATA [CACACA_site8906]	6.84
TTCTGTCAATATGCTTGTACGAAATATTTCGTAATT [XGTACX_site3182]	7.16
